The record followed here is publication PMC4336329 (PLoS ONE, 2015).

About 2,200 (0.71%) of roughly 310,000 compounds showed an effect of 50% or more. Effects have a minus sign here. The list shows a part of the results.

The target of the experiment is human ether-à-go-go-related gene (hERG) potassium channel (human, UniProt Q12809). Nature of the experiment: primary screen, population patch clamp on CHO cells stably expressing hERG.
human ether-à-go-go-related gene (hERG) potassium channel, sequence (Q12809 whole entry, looked up): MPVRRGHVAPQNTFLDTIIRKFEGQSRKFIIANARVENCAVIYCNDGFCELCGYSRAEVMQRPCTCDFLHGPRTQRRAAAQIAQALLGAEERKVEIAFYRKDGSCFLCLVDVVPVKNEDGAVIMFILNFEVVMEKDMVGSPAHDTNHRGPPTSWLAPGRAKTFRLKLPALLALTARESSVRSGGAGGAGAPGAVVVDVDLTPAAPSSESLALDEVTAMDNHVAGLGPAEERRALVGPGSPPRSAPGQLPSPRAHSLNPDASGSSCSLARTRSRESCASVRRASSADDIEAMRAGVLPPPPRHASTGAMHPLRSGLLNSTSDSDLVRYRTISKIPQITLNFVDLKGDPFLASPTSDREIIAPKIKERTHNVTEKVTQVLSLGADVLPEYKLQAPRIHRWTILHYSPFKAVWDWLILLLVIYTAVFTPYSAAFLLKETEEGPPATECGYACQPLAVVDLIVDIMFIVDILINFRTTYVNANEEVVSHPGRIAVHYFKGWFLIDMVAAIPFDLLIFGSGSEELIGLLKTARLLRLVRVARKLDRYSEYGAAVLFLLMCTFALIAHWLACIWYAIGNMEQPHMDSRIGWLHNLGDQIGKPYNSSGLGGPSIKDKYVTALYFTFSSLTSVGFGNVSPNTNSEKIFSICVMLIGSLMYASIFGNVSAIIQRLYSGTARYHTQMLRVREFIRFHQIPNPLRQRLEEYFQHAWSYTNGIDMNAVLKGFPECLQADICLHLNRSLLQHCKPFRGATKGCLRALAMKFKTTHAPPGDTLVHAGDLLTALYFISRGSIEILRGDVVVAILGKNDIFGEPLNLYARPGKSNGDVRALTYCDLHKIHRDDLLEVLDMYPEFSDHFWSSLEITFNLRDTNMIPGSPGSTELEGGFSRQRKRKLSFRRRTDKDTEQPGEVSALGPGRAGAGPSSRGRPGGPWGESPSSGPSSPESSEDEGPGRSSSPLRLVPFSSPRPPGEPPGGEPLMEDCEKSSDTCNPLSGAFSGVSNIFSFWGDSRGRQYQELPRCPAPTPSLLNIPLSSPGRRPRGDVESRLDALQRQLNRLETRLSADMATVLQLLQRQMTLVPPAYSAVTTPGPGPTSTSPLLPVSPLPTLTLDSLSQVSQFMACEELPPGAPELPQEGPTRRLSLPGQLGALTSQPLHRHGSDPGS
For `COc1ccc(OC)c(C2C(C(=O)c3ccc(C)o3)=C(O)C(=O)N2CCN2CCOCC2)c1` (stereo not drawn), the “hERG current change (%, negative = inhibition) at 1uM” value came out at 19.3%.
Turning to `O=c1cc(-c2ccc(O)c(O)c2)oc2cc(O)c(C3OC(CO)C(O)C(O)C3O)c(O)c12` (stereo not drawn), the “hERG current change (%, negative = inhibition) at 1uM” value is listed as 5.2%.
For `COc1ccc(CCNC(=O)Nc2ccc(F)cc2F)cc1OC` the value was 15.8%.
Consider `Cc1ccc(NC(=O)N2CCCC2C(=O)NCC2CCCCC2)cc1` (stereo not drawn), for which the “hERG current change (%, negative = inhibition) at 1uM” value was found to be 14.1%.
For `CSc1nc2ccsc2c(=O)n1-c1ccccn1` the value was 18.5%; for `CCCCCNC(=O)CN(c1ccc2c(c1)OCO2)S(C)(=O)=O`, 10.7%; for `CCC1=NC(c2ccccc2OC)N(O)C1(C)C` (stereo not drawn), 9.36%.
On to `O=C(N/N=C/c1cc(O)ccc1[N+](=O)[O-])c1ccc2c(c1)OCCO2`, for which the “hERG current change (%, negative = inhibition) at 1uM” value came to 0.582%.
As to `CCCc1ccc(OCC(O)CN2CCCC2)cc1.Cl` (stereo not drawn), the “hERG current change (%, negative = inhibition) at 1uM” value amounted to 7.45%.
For the compound `O=C(Nc1ccc(S(=O)(=O)NC2=NCCCCC2)cc1)c1cc(S(=O)(=O)N2CCOCC2)ccc1F`, the “hERG current change (%, negative = inhibition) at 1uM” value was -0.49%.
With `COc1cc2c(cc1OC)C(C)N(C(=O)c1c(C)noc1C)CC2` (stereo not drawn), the “hERG current change (%, negative = inhibition) at 1uM” value is given as 11.1%.
Turning to `CSc1ccc(S(=O)(=O)N2CCCC2)cc1`, the “hERG current change (%, negative = inhibition) at 1uM” value was found to be 14.7%.
`CCN(CC)c1ccc(/C=N/Nc2ccccc2)c(O)c1`: the “hERG current change (%, negative = inhibition) at 1uM” value amounted to 7.57%.
`O=C(Nc1cccc2nsnc12)C1CC(=O)N(c2ccccc2)C1` (stereo not drawn): the “hERG current change (%, negative = inhibition) at 1uM” value worked out at 3.06%.
On to `CCCCCn1c(=O)c(F)cn(Cc2ccc(OC)c([N+](=O)[O-])c2)c1=O`, for which the “hERG current change (%, negative = inhibition) at 1uM” value is 2.31%.
Regarding `Cc1cc(NC(=O)CSc2nc3ccccc3n2CC(=O)N2CC(C)CC(C)C2)no1` (stereo not drawn), the “hERG current change (%, negative = inhibition) at 1uM” value worked out at 13.6%.
For `Cc1c(C)[n+](=O)c(-c2ccc(Br)cc2)c(C)n1[O-]` the value was 12.7%; for `Cc1nc2ccccn2c1C(=O)NCCCN1CCOCC1`, 10.8%.
For `Cl.c1cncc(CNC2CCCC2)c1` the value was 9.76%.
For `CN1C(=O)N(C)C2CC1N(C)C(=O)N2C` the value was 9.16%; for `O=C(O)C(=O)O.O=[N+]([O-])c1ccccc1CN1CCN(Cc2c[nH]c3ccccc23)CC1`, 6.67%.
For `CNC(=O)CSc1nccn1Cc1ccc(Cl)cc1`, the “hERG current change (%, negative = inhibition) at 1uM” value was -1.52%.
Turning to `COc1ccc([N+](=O)[O-])cc1NC(=O)COC(=O)c1ccccn1`, the “hERG current change (%, negative = inhibition) at 1uM” value was 0.206%.
On to `O=C(N/N=C/c1ccccn1)c1ccc([N+](=O)[O-])cc1`, for which the “hERG current change (%, negative = inhibition) at 1uM” value came to 24.3%.
As for `Cc1ccc(C(=O)OC2OC(=O)C(Cl)=C2N2CCOCC2)cc1` (stereo not drawn), the “hERG current change (%, negative = inhibition) at 1uM” value is listed as 10%.
With `CC(C)[C@H](NC(=O)N1c2ccccc2NC(=O)[C@@H]1C(C)C)C(=O)N1CCC[C@H]1C(=O)O`, the “hERG current change (%, negative = inhibition) at 1uM” value was determined as 11.6%.
For `CN(C(=O)c1ccncc1)c1nnc(-c2ccccn2)s1` the value was 7.02%; for `CN1CC(c2ccccc2)C(c2ccc(Cl)cc2)=N1` (stereo not drawn), 5.03%; for `CCCn1c(=S)[nH]c2cc(C(=O)N3CCN(C(=O)OCC)CC3)ccc2c1=O`, 15.8%.
For `COC(=O)c1ccccc1NC(=O)c1ccc2nccnc2c1` the value was -2.37%.
For `Cc1cc(C)c(NC(=O)CSc2nnc(-c3ccncc3)n2Cc2ccco2)c(Cl)c1`, the “hERG current change (%, negative = inhibition) at 1uM” value was -38.1%.
For `O=C(Oc1ccnc2cc(Cl)ccc12)N1CCCCCC1` the value was 2.62%; for `O=C(Nc1cccc(Cl)c1)c1ccc(S(=O)(=O)NCC2CCCO2)cc1` (stereo not drawn), 9.78%.
For `Cc1ccc(N(Cc2cc3ccc(C)cc3[nH]c2=O)C(=O)c2cccs2)cc1` the value was 4.88%; for `Cc1ccc(NC(=S)NCc2ccccn2)cc1`, 6.04%.
In the case of `CCC1=NN(C(=O)C(=O)Nc2ccccc2OC)C(O)(C(F)(F)F)C1` (stereo not drawn), the “hERG current change (%, negative = inhibition) at 1uM” value is 14.5%.
Turning to `COCc1cc(C)nc(Oc2ccccc2)c1C#N`, the “hERG current change (%, negative = inhibition) at 1uM” value turned out to be 15.1%.
`Clc1ccc2c(c1)C1OCCC1C(c1ccco1)N2` (stereo not drawn): the “hERG current change (%, negative = inhibition) at 1uM” value was found to be 9.62%.
Take `CC(=O)c1ccc(S(=O)(=O)N(C)CCCC(=O)N(C)Cc2ccccc2F)cc1`: the “hERG current change (%, negative = inhibition) at 1uM” value was 4.24%.
With `C=CCNC(=O)/C(C#N)=C/c1cn(-c2ccccc2)nc1-c1ccc(OC)c([N+](=O)[O-])c1`, the “hERG current change (%, negative = inhibition) at 1uM” value was found to be 13.2%.
For `CC(=C1C2C=CC1C1C(=O)NC(=O)C21)c1ccccc1` (stereo not drawn) the value was -4.52%; for `CC(=O)NC(C)c1nc2ccccc2n1CC(=O)NC(C)CCc1ccccc1` (stereo not drawn), 2.49%; for `CC(Sc1nnc2ccccn12)C(=O)Nc1ncc(Cl)cc1Cl` (stereo not drawn), 6.98%.
For `CCOC(=O)c1oc2ccc(S(=O)(=O)n3nc(-c4cc(OC)c(OC)c(OC)c4)cc3N)cc2c1C` the value was -5.2%; for `Cl.O[C@@H]1CCCC[C@H]1N1CCC(c2ccccc2)CC1`, 14%.
